# About 2,200 (0.71%) of roughly 310,000 compounds showed an effect of 50% or more. Effects have a minus sign here. Some of the results follow.
# Target: human ether-à-go-go-related gene (hERG) potassium channel (human, UniProt Q12809)
# Assay: primary screen, population patch clamp on CHO cells stably expressing hERG
# Chain of human ether-à-go-go-related gene (hERG) potassium channel (Q12809 whole entry, looked up): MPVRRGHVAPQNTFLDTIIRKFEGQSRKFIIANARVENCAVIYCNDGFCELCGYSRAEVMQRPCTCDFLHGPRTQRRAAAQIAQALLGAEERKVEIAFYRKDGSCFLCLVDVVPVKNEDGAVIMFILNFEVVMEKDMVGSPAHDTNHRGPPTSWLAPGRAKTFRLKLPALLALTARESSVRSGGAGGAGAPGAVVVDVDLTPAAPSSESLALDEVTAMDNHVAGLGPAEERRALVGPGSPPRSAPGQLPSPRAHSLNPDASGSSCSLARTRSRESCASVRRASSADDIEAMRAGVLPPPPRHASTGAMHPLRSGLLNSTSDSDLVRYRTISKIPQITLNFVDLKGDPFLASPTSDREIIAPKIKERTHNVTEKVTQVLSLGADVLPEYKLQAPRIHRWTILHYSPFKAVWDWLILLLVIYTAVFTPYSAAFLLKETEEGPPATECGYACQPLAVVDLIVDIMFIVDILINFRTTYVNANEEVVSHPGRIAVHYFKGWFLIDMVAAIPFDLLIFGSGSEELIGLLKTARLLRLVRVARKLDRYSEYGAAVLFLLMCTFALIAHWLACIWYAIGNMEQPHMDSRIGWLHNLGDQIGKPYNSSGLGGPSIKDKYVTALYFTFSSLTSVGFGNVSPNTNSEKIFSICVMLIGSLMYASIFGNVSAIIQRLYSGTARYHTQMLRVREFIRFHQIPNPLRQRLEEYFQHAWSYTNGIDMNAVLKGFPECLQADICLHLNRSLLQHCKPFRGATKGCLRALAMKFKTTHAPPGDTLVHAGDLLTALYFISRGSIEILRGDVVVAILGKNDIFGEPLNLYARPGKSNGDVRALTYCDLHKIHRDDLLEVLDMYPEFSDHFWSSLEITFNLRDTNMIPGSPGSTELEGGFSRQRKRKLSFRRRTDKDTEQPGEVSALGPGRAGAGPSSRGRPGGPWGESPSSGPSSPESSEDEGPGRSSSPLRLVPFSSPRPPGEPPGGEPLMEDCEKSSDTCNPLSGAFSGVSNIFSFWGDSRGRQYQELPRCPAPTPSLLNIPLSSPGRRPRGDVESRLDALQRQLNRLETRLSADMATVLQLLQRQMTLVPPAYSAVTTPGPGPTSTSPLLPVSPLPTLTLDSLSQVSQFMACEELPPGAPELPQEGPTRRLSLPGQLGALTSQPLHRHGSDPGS
row,Compound,"hERG current change (%, negative = inhibition) at 1uM [%]"
1,COc1c(C(=O)Nc2ccc3[nH]c(=O)[nH]c3c2)cc2ccccc2c1Br,14.8
2,COc1cc(CN2CCC(C(=O)N3CCN(c4ccccc4F)CC3)CC2)cc(OC)c1O.O=C(O)C(=O)O,3.07
3,O=C(NCc1nc2ccccc2[nH]1)C1=C[C@@H](C2CCCCC2)C[C@@H](OCc2ccc(CO)cc2)O1,15.6
4,CC(=Nc1ccc(Br)cc1)c1sc2ccccc2c1O,6.54
5,CCN(CC(=O)Nc1ccc(NC(C)=O)cc1)C(=O)c1cccc2ccccc12,8.51
6,CC(Sc1nnnn1-c1ccc(Cl)cc1)C(=O)NCC(=O)Nc1ccc(F)c(F)c1F (stereo not shown),17.5
7,CCOc1ccc(NC(=O)/C(C#N)=C/c2ccc(N3CCCC3)c(C)c2)cc1,5.17
8,CCn1c(C)cc(/C=C2/NC(=O)N(CC(=O)Nc3cccc(C)c3)C2=O)c1C,8.36
9,COCCn1cc(C(=O)NCc2cccs2)c2c3ccccc3n(C)c2c1=O,10
10,CN(C)CCCN(C(=O)c1ccc(S(=O)(=O)N2CCCC2)cc1)c1nc2c(F)cc(F)cc2s1.Cl,5.61
11,COc1ccc(NC2CC(=O)N(CCc3ccccc3)C2=O)cc1 (stereo not shown),4.51
12,CSc1ccc(CCNC(=O)c2cc(-c3ccccc3)c(N3CCOCC3)s2)cc1,6.2
13,CC(=O)NC(Cc1ccccc1)C(=O)OCC(=O)c1ccccc1 (stereo not shown),4.85
14,Cc1nc2c(sc(=S)n2Cc2ccco2)c(=O)n1CC(=O)Nc1ccccc1Cl,5.26
15,C[C@]12CC[C@H](O)C[C@H]1CC[C@@H]1C2CC[C@]2(C)[C@@H](C3=CC(=O)OC3)[C@@H](O)C[C@]12O (stereo partly shown),13.5
16,CC(=O)Cc1nsc(NC(=O)c2cc(-c3ccc(Cl)c(Cl)c3)oc2C)n1,12.2
17,COc1ccc(/C=N/NC(=O)c2ccncc2)cc1CSc1nc2ccccc2s1,15.2
18,Cc1[nH]n(-c2ccccc2)c(=O)c1C(=O)c1ccc(Cl)cc1,15.9
19,O=C(NC1CC1)C1=C[C@@H](c2ccccc2)C[C@@H](OCc2ccc(CO)cc2)O1,3.99
20,CC1=C(C#N)C(c2ccc(O)cc2)C(C#N)=C(C)N1,9.37
21,Cc1cc(NC(=O)CSc2nnc(-c3ccco3)n2C)no1,11.8
22,O=S(=O)(Nc1c(F)cccc1F)c1ccc(Cl)nc1,26.5
23,CCOC(=O)Cc1nnc(Nc2cc(C)ccc2C)c2ccccc12,-1.18
24,COC(=O)C(O)(c1ccc(N=Cc2ccccc2O)c(C)c1)C(F)(F)F (stereo not shown),12.2
25,O=C(O)c1cccc(Nc2nc(-c3cc4ccccc4oc3=O)cs2)c1,13.5
26,CCn1c(=NC(=O)C2COc3ccccc3O2)sc2c(C)ccc(OC)c21 (stereo not shown),11
27,Clc1ncccc1-c1nc2ccccc2n1Cc1ccccc1,-4.59
28,CC(C)(C)Cc1nnc(NC(=O)c2ccc3c(c2)OCO3)s1,19.8

row,Compound,"hERG current change (%, negative = inhibition) at 1uM [%]"
1,COc1ccc(Oc2ncnc3c2ncn3Cc2ccccc2)cc1,-0.583
2,COc1ccc(S(=O)(=O)N2CCC3(CC2)CC(=O)c2ccccc2O3)cc1,-10.6
3,CCOC(=O)C1CCN(C(C(=O)NC2CCCC2)c2ccc(C)cc2)CC1 (stereo not shown),6.01
4,CCc1ccccc1N(C(=O)c1cccs1)C1C=CS(=O)(=O)C1 (stereo not shown),-4.94
5,CC(=O)Nc1ccc(NC(=O)c2ccccc2CC[N+](=O)[O-])cc1,8.71
6,Cc1nn(C)c(Cl)c1NC(=O)OCc1ccc(F)cc1,9.59
7,CSc1nnc([C@@H](N)Cc2ccccc2)o1.Cl,-11.6
8,O=[N+]([O-])c1cccc(/C=N/Nc2ccccn2)c1,14.2
9,CC(C)C(=O)Nc1ccc(NC(=S)NC(=O)c2ccccc2F)cc1,5.21
10,CN(C)S(=O)(=O)c1cccc(NC(=O)CSc2nc3ccccc3n2-c2ccccc2)c1,10.5
11,Cc1ccc(S(=O)(=O)NC2CCCCC2)c(C)c1NS(C)(=O)=O,11.8
12,COCCNC(=S)NNc1ccccc1[N+](=O)[O-],11.6
13,Cc1ccc(C)c(C(C)NC(=O)C2CCCO2)c1 (stereo not shown),20.6
14,C/C(CC(=O)Nc1ccc(C)c(Cl)c1)=N\NC(=O)c1cccc(O)c1,17.8
15,CCOc1ccc(C(=O)NN2C(=O)C3C4C=CC(O4)C3C2=O)cc1 (stereo not shown),4.94
16,O=C(N[C@H](C(=O)O)c1ccccc1)C1CCC(Cn2cnc3ccccc3c2=O)CC1 (stereo partly shown),10.6
17,CSc1nc(N)n2nc(-c3ccccc3)cc2n1,10.8
18,CCOc1ccccc1NC(=O)c1cc(SC)ccc1Cl,29.3
19,CCOC(=O)Cc1nn(Cc2ccccc2)c(=O)c2ccccc12,5.61
20,Cc1ccc(C(=O)OCC(=O)N(C)C2CCS(=O)(=O)C2)cc1[N+](=O)[O-] (stereo not shown),13.7
21,COc1ccc(/C=N\NC(=O)c2ccccc2Cl)cc1COc1c(F)c(F)c(F)c(F)c1F,8.28
22,O=C(NNC(=O)c1ccc(F)cc1)c1ccncc1,13.1
23,COc1ccc(CN(C)C(=O)Cc2c[nH]c3ccccc23)cc1,15.6
24,CCCCSc1nnc(-c2cc3c(C(F)(F)F)nn(C)c3s2)n1C,10.1
25,C/C(=N\NC(=O)c1ccncc1)c1c(O)n(-c2ccccc2)c(=O)[nH]c1=O,7.14
26,O=C(c1cccc(S(=O)(=O)Nc2ccccc2Cl)c1)N1CCC1,12.9
27,CCn1c(SCC(=O)Nc2cc(C)on2)nnc1-c1cccs1,4.31
